Assay in all cases: Viability of human cancer cell lines after 72 h of drug (GDSC screen)
Compound in one test: C/C(O)=C(\C#N)C(=O)Nc1cc(Br)ccc1Br [LFM-A13]
The settings on record: top dose 16 µM; top dose inferred. Here is the method:
(§1)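 Human cancer cell lines in 384-well plates, medium with 10% serum, drug for 72 h over a 256-fold dose range (nine 2-fold or five 4-fold steps up to the top dose). Adherent lines were fixed and stained with the nucleic acid dye Syto60, suspension lines read with resazurin; signal relative to control wells, capped at 0 and 100%. One two-parameter sigmoid per drug and line, fitted in a mixed model over all curves with the slope shared within a line.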

Compound in a further test: CC(C)c1ccccc1Cc1cc(C(=O)Nc2ccc(S(=O)(=O)c3ccccc3C(C)(C)C)cc2)c(O)c(O)c1O [TW-37]
The settings on record: top dose 5 µM. The method, then:
as §1

Compound in the next test: CC(O)(CS(=O)(=O)c1ccc(F)cc1)C(=O)Nc1ccc(C#N)c(C(F)(F)F)c1 [Bicalutamide]
Particulars: top dose inferred. The method, then: as §1

Compound in another test: CCNC(=O)c1noc(-c2cc(C(C)C)c(O)cc2O)c1-c1ccc(CN2CCOCC2)cc1 [AUY922]
Particulars: top dose 0.256 µM; top dose inferred. Here is the method:
as §1

Compound in another test: Cc1ccc(Nc2cc(-c3cccc(N4C(=O)c5ccccc5C4=O)c3)ncn2)cc1NS(C)(=O)=O [KIN001-270]
Particulars: top dose 20 µM; top dose inferred. Here is the method:
as §1

Compound in another test: Cc1cn(-c2cc(NC(=O)c3ccc(C)c(Nc4nccc(-c5cccnc5)n4)c3)cc(C(F)(F)F)c2)cn1 [Nilotinib]
Particulars: top dose 2 µM. The method, then:
as §1

Compound in a further test: Nc1ccn([C@@H]2O[C@H](CO)[C@@H](O)C2(F)F)c(=O)n1 [Gemcitabine]
Particulars: top dose 1.024 µM. The method, then:
as §1

Compound in another test: O=S(=O)(c1ccccc1)N(CC(F)(F)F)c1ccc(C(O)(C(F)(F)F)C(F)(F)F)cc1 [T0901317]
Particulars: top dose 10.24 µM; top dose inferred. Here is the method: as §1

Compound in the next test: S=C(NCc1ccc2c(c1)OCO2)N1CCN(c2ncnc3c2oc2ccccc23)CC1 [MP470]
The settings on record: top dose 20 µM; top dose inferred. The method, then: as §1

[1] abbreviates: top dose 1.024 µM, screen: GDSC drug entry 150.
Setting [2] is: top dose 10 µM, screen: GDSC drug entry 1502.

By IC50 is meant the dose at which the fit gives 50% viability; a limit (>, <) means that the fit lies beyond the doses tested. AUC is the area under the same curve over the 256-fold range up to the top dose, as a fraction: 1 means no effect, lower means more sensitive. For part of these data: Where the top dose is marked as inferred, it comes from the curve model; the source does not state it. For part of these data: An entry number marks a drug with two screens in the source, which often give different values.

One may read the IC50 as the concentration that inhibits the measured activity by half.

In the case of H2731 (mesothelioma, adherent), the AUC with LFM-A13 is 0.96; with TW-37, 0.594; in the test with Bicalutamide (setting [1]) it was 0.984; with Bicalutamide (setting [2]), 0.982; in the test with AUY922, 0.928; with KIN001-270, 0.984. Further, the AUC is 0.984 with Nilotinib, 0.978 with Gemcitabine, 0.932 in the test with T0901317 and 0.893 with MP470. Further, the IC50 in the test with LFM-A13 is > 16 µM; with TW-37 it was 0.588 µM; with Bicalutamide (setting [1]), > 1.02 µM; in the test with Bicalutamide (setting [2]), > 10 µM; with AUY922, > 0.256 µM; with KIN001-270, > 20 µM. Also, the IC50 with Nilotinib is > 2 µM; with Gemcitabine, > 1.02 µM; with T0901317, > 10.2 µM; with MP470 it was > 20 µM.
For the cell line BICR78 (head and neck, adherent), the AUC was found to be 0.983 with LFM-A13; 0.439 with TW-37; 0.982 in the test with Bicalutamide (setting [1]); 0.978 with Bicalutamide (setting [2]); 0.795 in the test with AUY922; 0.98 with KIN001-270. Moreover, the AUC in the test with Nilotinib was determined as 0.968; in the test with Gemcitabine, 0.776; with T0901317, 0.973; in the test with MP470, 0.895. Moreover, the concentration for half-maximal inhibition (IC50) is > 16 µM with LFM-A13; 0.207 µM with TW-37; > 1.02 µM with Bicalutamide (setting [1]); > 10 µM with Bicalutamide (setting [2]); 0.14 µM in the test with AUY922; > 20 µM in the test with KIN001-270. Also, the IC50 with Nilotinib is > 2 µM; with Gemcitabine, 0.475 µM; with T0901317, > 10.2 µM; with MP470 it was > 20 µM.
Regarding no-10 (glioma, adherent), the AUC in the test with LFM-A13 is 0.965; with TW-37, 0.504; with Bicalutamide (setting [1]), 0.98; in the test with Bicalutamide (setting [2]), 0.968; in the test with AUY922, 0.612; with KIN001-270 it was 0.961. In addition, the AUC was determined as 0.982 with Nilotinib, 0.598 in the test with Gemcitabine, 0.976 with T0901317 and 0.953 with MP470. The 50% inhibitory concentration (IC50) with LFM-A13 was > 16 µM; with TW-37, 0.322 µM; in the test with Bicalutamide (setting [1]), > 1.02 µM; with Bicalutamide (setting [2]) it was > 10 µM; in the test with AUY922, 0.035 µM; with KIN001-270 it was > 20 µM. Besides, the IC50 with Nilotinib was > 2 µM; with Gemcitabine, 0.126 µM; in the test with T0901317, > 10.2 µM; with MP470, > 20 µM.
In the case of HCT-15 (large intestine, adherent), the AUC with LFM-A13 came out at 0.949; with TW-37 it was 0.385; with Bicalutamide (setting [1]), 0.987; with AUY922 it was 0.735; with KIN001-270, 0.981; with Nilotinib it was 0.987. Also, the values for the AUC in the test with Gemcitabine, with T0901317 and in the test with MP470 were 0.424, 0.966 and 0.943, respectively. For the same cell line, the IC50 was > 16 µM with LFM-A13; 0.148 µM in the test with TW-37; > 1.02 µM in the test with Bicalutamide (setting [1]); 0.0784 µM with AUY922; > 20 µM with KIN001-270; > 2 µM in the test with Nilotinib. Further, the half-inhibitory concentration (IC50) with Gemcitabine was 0.039 µM; with T0901317, > 10.2 µM; with MP470, > 20 µM.
In the case of WM278 (melanoma, adherent), the AUC with LFM-A13 worked out at 0.955; in the test with TW-37, 0.576; with Bicalutamide (setting [1]), 0.984; in the test with Bicalutamide (setting [2]), 0.978; with AUY922, 0.49; in the test with KIN001-270, 0.979. For the same cell line, the AUC amounted to 0.924 with Nilotinib, 0.617 with Gemcitabine, 0.984 with T0901317 and 0.973 with MP470. Further, the IC50 is > 16 µM with LFM-A13; 0.518 µM with TW-37; > 1.02 µM with Bicalutamide (setting [1]); > 10 µM with Bicalutamide (setting [2]); 0.0149 µM in the test with AUY922; > 20 µM with KIN001-270. For the same cell line, the IC50 with Nilotinib is > 2 µM; in the test with Gemcitabine it was 0.141 µM; with T0901317, > 10.2 µM; with MP470 it was > 20 µM.
Regarding “NCI-H2172 (non-small cell lung carcinoma, adherent)”, the AUC with LFM-A13 worked out at 0.962; with TW-37 it was 0.579; with Bicalutamide (setting [1]) it was 0.983; with Bicalutamide (setting [2]), 0.976; with AUY922, 0.884; in the test with KIN001-270 it was 0.942. In addition, the AUC worked out at 0.976 with Nilotinib, 0.909 with Gemcitabine, 0.981 with T0901317 and 0.918 in the test with MP470. Also, the IC50 was > 16 µM with LFM-A13; 0.555 µM with TW-37; > 1.02 µM with Bicalutamide (setting [1]); > 10 µM in the test with Bicalutamide (setting [2]); > 0.256 µM in the test with AUY922; > 20 µM in the test with KIN001-270. Besides, the IC50 with Nilotinib was > 2 µM; with Gemcitabine it was > 1.02 µM; with T0901317, > 10.2 µM; in the test with MP470, > 20 µM.
Turning to CAL-39 (cervix, adherent), the AUC with LFM-A13 came out at 0.984; in the test with TW-37 it was 0.539; with Bicalutamide (setting [1]), 0.984; with Bicalutamide (setting [2]), 0.983; with AUY922 it was 0.426; with KIN001-270 it was 0.975. Besides, the AUC with Nilotinib was found to be 0.977; with Gemcitabine it was 0.957; in the test with T0901317, 0.985; in the test with MP470, 0.964. Also, the IC50 in the test with LFM-A13 was > 16 µM; with TW-37 it was 0.401 µM; in the test with Bicalutamide (setting [1]), > 1.02 µM; with Bicalutamide (setting [2]), > 10 µM; with AUY922 it was 0.00998 µM; with KIN001-270, > 20 µM. For the same cell line, the IC50 in the test with Nilotinib was > 2 µM; with Gemcitabine it was > 1.02 µM; with T0901317, > 10.2 µM; in the test with MP470 it was > 20 µM.

These data come from the supplement of paper PMC4967469.
